According to the supplement of paper PMC3334620:
Over roughly 33,000 sequences, “E-score (-0.5 to 0.5)” has its median near -0.036; the highest 2% begin near 0.37. Some of the results follow.

Molecular target: T1, Yer064c (UniProt P40041)
T1 sequence: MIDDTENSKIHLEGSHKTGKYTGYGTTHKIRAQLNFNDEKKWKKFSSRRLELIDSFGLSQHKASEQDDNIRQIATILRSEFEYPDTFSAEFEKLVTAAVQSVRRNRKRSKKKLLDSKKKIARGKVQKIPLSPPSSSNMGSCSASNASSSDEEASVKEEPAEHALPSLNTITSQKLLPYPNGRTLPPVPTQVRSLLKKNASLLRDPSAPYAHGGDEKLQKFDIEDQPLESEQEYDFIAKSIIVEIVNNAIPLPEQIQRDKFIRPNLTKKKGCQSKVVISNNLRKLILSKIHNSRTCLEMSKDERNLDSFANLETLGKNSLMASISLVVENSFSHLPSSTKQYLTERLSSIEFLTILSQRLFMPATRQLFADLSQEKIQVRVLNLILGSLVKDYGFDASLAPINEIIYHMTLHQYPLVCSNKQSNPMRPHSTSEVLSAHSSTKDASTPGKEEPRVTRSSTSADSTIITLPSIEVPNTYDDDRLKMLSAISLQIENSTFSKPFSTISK
Assay: PBM E-score (8-mer binding enrichment) (E-score (-0.5 to 0.5)); higher = stronger / more preferred TF binding; most listed sequences are background and not binding sites
Settings: protein concentration: 200 nM; construct: GST-full length
How it was run: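 Universal all-10-mer Agilent arrays, double-stranded by primer extension on fresh or once-stripped slides, were probed with about 100-200 nM GST-tagged yeast transcription factors made by PURExpress. Fluorescent anti-GST detected bound protein, and masliner normalised the scans. E-scores from the Universal PBM Analysis Suite were given to each ungapped eight-base word pooled with its reverse complement.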

Sequence | PBM E-score
AGACTGAC | 0.299
ATGTATAG | 0.0799
CGCGTCCC | -0.256
ATTGCCTA | 0.153
AGTTCGTC | -0.0236
CACCGGCA | -0.166
CTGCGTCA | -0.145
CTTTGTGA | 0.136
CCTTCTCA | -0.111
AAAGAGTA | 0.0885
ACCCGGCC | -0.168
CGGAAGTC | 0.268
AGCTTTGA | 0.158
CCTGAAAG | -0.033
GATTGGTA | 0.0776
AGGCAACG | -0.227
GACCCCTC | -0.00087
GACCACAC | 0.00422
GCGCGCGC | 0.212
GGCCCTAC | -0.147
CAGCCGGC | -0.218
CAGGGTAC | -0.143
AACCCGAT | -0.0429
AGAAGGCT | -0.246
GGGAGTGA | 0.0741

Sequence | PBM E-score
CTAACCAA | 0.145
TACGGTAA | -0.0542
CAGCGCTA | 0.0006
CCTGACCC | -0.151
CCTCGAAG | -0.185
AGGTTATA | -0.29
ATAAAGTC | 0.284
GGCTTCAA | -0.107
CCGTAGTA | -0.15
GCTGAACA | 0.0192
ATACTGAT | 0.117
ACAAAATA | -0.0844
CCGAACAG | -0.0474
CGTGTAGC | 0.0129
GATGAATC | 0.387
ACTCTAAC | 0.147
CTATACTC | 0.0859
AGCCGCCC | -0.162
CTCGCGGC | 0.00801
AGTCGCAC | 0.353
AATTCTTG | -0.0156
CGATTCCC | 0.08
AGTGAGTG | 0.0771
ATCCCTTC | -0.095
ACTCTCCA | 0.114

Sequence | PBM E-score
AACGACGC | -0.169
CAACCCGC | 0.0525
CGCCCAAA | 0.0397
CGCTGAAC | -0.0322
GCCAGTGA | 0.128
ACATCACC | -0.226
CCATAAAA | -0.175
ACAATATG | 0.00196
CACTTACG | 0.121
AACGCCTG | -0.261
AATATATT | 0.193
CTTGAACC | 0.164
GACAGCCA | -0.158
TCACAGAA | 0.232
GCGGGCTA | -0.133
GATTACTA | 0.294
AAACCCCG | 0.00286
ACGAGCAT | -0.153
CCGTACTA | -0.0925
CACTAGCG | -0.219
CCAGGGTA | -0.0928
CAAGCCTA | -0.138
CTTTGGAC | 0.0807
ATTCTCGG | 0.0573
ACCAACGA | -0.0117

Sequence | PBM E-score
GTCACCAC | 0.29
GCACAAGA | 0.00075
TCCCGAGA | 0.0528
CAAGGTCC | -0.203
AGCTTTCG | -0.159
ACGTTACG | -0.0552
TATCCCAA | -0.144
GTAACCCA | 0.234
AGACTTAG | 0.257
ACGACACG | -0.0336
AGGAACAA | 0.0963
ACTAAGAA | 0.256
AGTTCGGC | -0.104
TATGAGGA | -0.02
TACATTGA | 0.0284
CCTAGTTA | 0.0589
CATCGTAG | 0.098
CCCACTCA | 0.0376
GGACCAAA | -0.11
ACGAGTCC | 0.289
GGCCATAC | -0.235
ACGCTTAC | -0.155
ATTGTAGC | 0.0452
CATATCAC | -0.0653
ATCTATCC | -0.0727

Sequence | PBM E-score
AGGTATCA | -0.0934
CCGAACAC | 0.0199
AAGAGAAT | -0.0224
ATTGCTAC | -0.151
TCGTAAGA | 0.0845
GTGTAACA | 0.0398
GTAGTCAA | 0.445
CGGGAACC | -0.163
AAGTGTTC | 0.00118
AAGTATGA | 0.226
GGATAGCC | -0.00217
AGTTAAAA | -0.0467
GCCCCTAC | -0.229
ACAAGGTA | -0.206
AATAGCGC | -0.177
GGTCCACA | -0.0762
AACACTCG | -0.0385
CTGGCCCC | -0.268
CTACTGGC | -0.277
AAAGGACC | -0.216
CTCTGAGC | -0.152
CTCCAGCA | -0.147
ATGACCAA | 0.0547
CTCGTCCA | 0.179
AAGATCGA | -0.133

Sequence | PBM E-score
GTCATGAA | 0.308
AATGTGAT | 0.146
AGCGCACC | -0.18
GATTCACC | 0.372
GTCGACCA | 0.00581
ACGGTCGC | -0.225
AGGCTACT | -0.205
AGGGTGTA | 0.00346
AAATGAGG | -0.229
ATGTCGAC | -0.0233
GCCTCGCC | -0.359
AAACTCCG | 0.0383
GTATATAC | 0.0299
ACCTTTAA | 0.00789
TCGACGCA | 0.00283
CTGTCATC | -0.19
CATTAAGC | 0.00209
TCAATCGA | 0.175
ATCCCAAA | -0.0524
AGAAACAG | -0.164
CAGAGTGG | -0.106
ACGTAGTG | -0.132
AGACGCCT | -0.149
GATTACCA | 0.315
AAAGTAGT | 0.236

Sequence | PBM E-score
CATTAGGG | -0.242
ACATCACA | -0.0462
AACTACTA | -0.0232
GCCGATTA | -0.0381
GCGTCAGA | -0.116
CCAGGCCC | -0.34
ATTGCCCC | -0.271
CCTACTAC | -0.179
GCCGTGCA | -0.055
TAACTGGA | -0.0871
GGCCTACC | -0.309
CCTAGGTC | 0.0791
ATGAGTAC | 0.415
CCTCGTAC | -0.189
AACTTTTA | 0.00975
GCTTTACC | -0.0725
CCTCAAAA | -0.108
CTGTCAAG | -0.18
GGAACCCC | -0.383
CTGACAAG | 0.0529
CTAATATA | 0.241
AAGACGCC | -0.0564
